T1: Cyno TfR ECD Avi-His (cynomolgus macaque, UniProt Q5RDH6 89-760 (Pongo abelii entry), biotin on the Avi tag (BirA) where captured on streptavidin)
T1 construct: also called Cyno TfR Avi-His; cyno TfR Avi-His
T1 chain: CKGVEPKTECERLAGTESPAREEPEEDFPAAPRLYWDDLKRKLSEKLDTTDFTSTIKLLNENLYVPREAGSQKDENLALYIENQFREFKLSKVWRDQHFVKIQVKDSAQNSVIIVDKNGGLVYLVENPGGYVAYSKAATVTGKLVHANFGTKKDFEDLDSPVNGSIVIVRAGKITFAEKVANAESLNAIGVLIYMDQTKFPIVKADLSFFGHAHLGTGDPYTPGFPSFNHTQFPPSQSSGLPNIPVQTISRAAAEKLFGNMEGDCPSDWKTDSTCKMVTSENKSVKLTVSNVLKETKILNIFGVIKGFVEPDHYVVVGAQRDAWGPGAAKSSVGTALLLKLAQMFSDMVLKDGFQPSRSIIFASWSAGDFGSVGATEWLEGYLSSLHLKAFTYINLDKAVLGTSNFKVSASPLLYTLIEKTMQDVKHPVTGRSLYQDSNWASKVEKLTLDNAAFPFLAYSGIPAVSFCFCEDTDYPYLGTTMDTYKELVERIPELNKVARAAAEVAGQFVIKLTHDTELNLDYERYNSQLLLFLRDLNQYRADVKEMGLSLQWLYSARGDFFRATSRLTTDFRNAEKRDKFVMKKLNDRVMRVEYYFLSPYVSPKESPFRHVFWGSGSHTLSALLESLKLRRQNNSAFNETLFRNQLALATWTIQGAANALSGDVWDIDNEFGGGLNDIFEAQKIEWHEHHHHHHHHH


Biological target: T1, Cyno TfR ECD Avi-His
Test: SPR (Carterra LSA), 2+1 immobilised
Experimental: The remaining unconjugated active groups on the chip were then blocked by injecting 1M Ethanolamine pH 8.5 (Carterra) for 7 minutes using the single channel flow cell.
Estimates of affinity were generated by injecting each analyte over the entire antibody array using the single channel flow cell. […] Data were processed and analyzed using NextGenKIT high-throughput kinetics analysis software (Carterra).

| binding result | Binder |
| --- | --- |
| binds | TfR9.1B.35 2+1 anti-TfR bispecific antibody (bispecific antibody, human IgG1, kappa, 2+1) heavy 1: EVRLLESGGGLVQPGGSLRLSCAASGFTFSNYAMGWVRQAPGKGLEWVSAISGSGGSTYYADSVKGRFTTSRDDSKNALYLQMNSLRAEDTAVYYCARGGPGWYAADVWGQGTTVTVSSASTKGPSVFPLAPSSKSTSGGTAALGCLVKDYFPEPVTVSWNSGALTSGVHTFPAVLQSSGLYSLSSVVTVPSSSLGTQTYICNVNHKPSNTKVDKKV[here human IgG1 Fc with changes without letters]GGGGSGGGGSGGGGSQVQLVQSGAEVKKPGASVKVSCKASGYTFTEYAMHWVRQAPGQGLEWMGGINPNDGGTSYNQKFKGRVTMTVDTSTSTAYMELSSLRSEDTAVYYCASQGWLLRGGDYWGQGTLVTVSSGGSEGKSSGSGSESKSTGGSDVVMTQSPLSLPVTLGQPASISCKSSQSLLDSDGKTYLNWLQQRPGQSPRRLIYLVSKLDSGVPDRFSGSGSGTDFTLKISRVEAEDVGVYHCWQGTHFPQSFGGGTKVEIK heavy 2: EVRLLESGGGLVQPGGSLRLSCAASGFTFSNYAMGWVRQAPGKGLEWVSAISGSGGSTYYADSVKGRFTTSRDDSKNALYLQMNSLRAEDTAVYYCARGGPGWYAADVWGQGTTVTVSS[here human IgG1 constant region with changes without letters] light: DIQMTQSPSSLSASVGDRVTITCRASQSISSYLNWYQQKPGKAPKLLIYAASSLQSGVPSRFSGSGSGTDFTLTISSLQPEDFATYYCQQADLPAFAFGGGTKVEIKRTVAAPSVFIFPPSDEQLKSGTASVVCLLNNFYPREAKVQWKVDNALQSGNSQESVTEQDSKDSTYSLSSTLTLSKADYEKHKVYACEVTHQGLSSPVTKSFNRGEC |
| binds | TfR9.1B.43 2+1 anti-TfR bispecific antibody (bispecific antibody, human IgG1, kappa, 2+1) heavy 1: EVRLLESGGGLVQPGGSLRLSCAASGFTFSNYAMGWVRQAPGKGLEWVSAISGSGGSTYYADSVKGRFTTSRDDSKNALYLQMNSLRAEDTAVYYCARGGPGWYAADVWGQGTTVTVSSASTKGPSVFPLAPSSKSTSGGTAALGCLVKDYFPEPVTVSWNSGALTSGVHTFPAVLQSSGLYSLSSVVTVPSSSLGTQTYICNVNHKPSNTKVDKKV[here human IgG1 Fc with changes without letters]GGGGSGGGGSGGGGSQVQLVQSGAEVKKPGASVKVSCKASGYTFTEYAMHWVRQAPGQGLEWMGGINPNDGGTSYLQKFKGRVTMTVDTSTSTAYMELSSLRSEDTAVYYCASQRWLLRGGDYWGQGTLVTVSSGGSEGKSSGSGSESKSTGGSDVVMTQSPLSLPVTLGQPASISCKSSQSLLDSDGKTYLNWLQQRPGQSPRRLIYLVSKLDSGVPDRFSGSGSGTDFTLKISRVEAEDVGVYYCWQGTHFPQTFGGGTKVEIK heavy 2: EVRLLESGGGLVQPGGSLRLSCAASGFTFSNYAMGWVRQAPGKGLEWVSAISGSGGSTYYADSVKGRFTTSRDDSKNALYLQMNSLRAEDTAVYYCARGGPGWYAADVWGQGTTVTVSS[here human IgG1 constant region with changes without letters] light: DIQMTQSPSSLSASVGDRVTITCRASQSISSYLNWYQQKPGKAPKLLIYAASSLQSGVPSRFSGSGSGTDFTLTISSLQPEDFATYYCQQADLPAFAFGGGTKVEIKRTVAAPSVFIFPPSDEQLKSGTASVVCLLNNFYPREAKVQWKVDNALQSGNSQESVTEQDSKDSTYSLSSTLTLSKADYEKHKVYACEVTHQGLSSPVTKSFNRGEC |
| binds | TfR9.1B.40 2+1 anti-TfR bispecific antibody (bispecific antibody, human IgG1, kappa, 2+1) heavy 1: EVRLLESGGGLVQPGGSLRLSCAASGFTFSNYAMGWVRQAPGKGLEWVSAISGSGGSTYYADSVKGRFTTSRDDSKNALYLQMNSLRAEDTAVYYCARGGPGWYAADVWGQGTTVTVSSASTKGPSVFPLAPSSKSTSGGTAALGCLVKDYFPEPVTVSWNSGALTSGVHTFPAVLQSSGLYSLSSVVTVPSSSLGTQTYICNVNHKPSNTKVDKKV[here human IgG1 Fc with changes without letters]GGGGSGGGGSGGGGSQVQLVQSGAEVKKPGASVKVSCKASGYTFTEYAMHWVRQAPGQGLEWMGGINPNDGGTSYNQKFKGRVTMTVDTSTSTAYMELSSLRSEDTAVYYCASQRWLDRGGDYWGQGTLVTVSSGGSEGKSSGSGSESKSTGGSDVVMTQSPLSLPVTLGQPASISCKSSQSLLDSDGKTYLNWLQQRPGQSPRRLIYLVSKLDSGVPDRFSGSGSGTDFTLKISRVEAEDVGVYYCWQGTQFPQTFGGGTKVEIK heavy 2: EVRLLESGGGLVQPGGSLRLSCAASGFTFSNYAMGWVRQAPGKGLEWVSAISGSGGSTYYADSVKGRFTTSRDDSKNALYLQMNSLRAEDTAVYYCARGGPGWYAADVWGQGTTVTVSS[here human IgG1 constant region with changes without letters] light: DIQMTQSPSSLSASVGDRVTITCRASQSISSYLNWYQQKPGKAPKLLIYAASSLQSGVPSRFSGSGSGTDFTLTISSLQPEDFATYYCQQADLPAFAFGGGTKVEIKRTVAAPSVFIFPPSDEQLKSGTASVVCLLNNFYPREAKVQWKVDNALQSGNSQESVTEQDSKDSTYSLSSTLTLSKADYEKHKVYACEVTHQGLSSPVTKSFNRGEC |
| binds | TfR9.1B.38 2+1 anti-TfR bispecific antibody (bispecific antibody, human IgG1, kappa, 2+1) heavy 1: EVRLLESGGGLVQPGGSLRLSCAASGFTFSNYAMGWVRQAPGKGLEWVSAISGSGGSTYYADSVKGRFTTSRDDSKNALYLQMNSLRAEDTAVYYCARGGPGWYAADVWGQGTTVTVSSASTKGPSVFPLAPSSKSTSGGTAALGCLVKDYFPEPVTVSWNSGALTSGVHTFPAVLQSSGLYSLSSVVTVPSSSLGTQTYICNVNHKPSNTKVDKKV[here human IgG1 Fc with changes without letters]GGGGSGGGGSGGGGSQVQLVQSGAEVKKPGASVKVSCKASGYTFTEYAMHWVRQAPGQGLEWMGGINPNDGGTSYAQKFKGRVTMTVDTSTSTAYMELSSLRSEDTAVYYCASQRWLNRGGDYWGQGTLVTVSSGGSEGKSSGSGSESKSTGGSDVVMTQSPLSLPVTLGQPASISCKSSQSLLDSDGKTYLNWLQQRPGQSPRRLIYLVSKLDSGVPDRFSGSGSGTDFTLKISRVEAEDVGVYYCWQGTHFPQTFGGGTKVEIK heavy 2: EVRLLESGGGLVQPGGSLRLSCAASGFTFSNYAMGWVRQAPGKGLEWVSAISGSGGSTYYADSVKGRFTTSRDDSKNALYLQMNSLRAEDTAVYYCARGGPGWYAADVWGQGTTVTVSS[here human IgG1 constant region with changes without letters] light: DIQMTQSPSSLSASVGDRVTITCRASQSISSYLNWYQQKPGKAPKLLIYAASSLQSGVPSRFSGSGSGTDFTLTISSLQPEDFATYYCQQADLPAFAFGGGTKVEIKRTVAAPSVFIFPPSDEQLKSGTASVVCLLNNFYPREAKVQWKVDNALQSGNSQESVTEQDSKDSTYSLSSTLTLSKADYEKHKVYACEVTHQGLSSPVTKSFNRGEC |
| binds | TfR9.1B.41 2+1 anti-TfR bispecific antibody (bispecific antibody, human IgG1, kappa, 2+1) heavy 1: EVRLLESGGGLVQPGGSLRLSCAASGFTFSNYAMGWVRQAPGKGLEWVSAISGSGGSTYYADSVKGRFTTSRDDSKNALYLQMNSLRAEDTAVYYCARGGPGWYAADVWGQGTTVTVSSASTKGPSVFPLAPSSKSTSGGTAALGCLVKDYFPEPVTVSWNSGALTSGVHTFPAVLQSSGLYSLSSVVTVPSSSLGTQTYICNVNHKPSNTKVDKKV[here human IgG1 Fc with changes without letters]GGGGSGGGGSGGGGSQVQLVQSGAEVKKPGASVKVSCKASGYTFTEYAMHWVRQAPGQGLEWMGGINPNDGGTHYNQKFKGRVTMTVDTSTSTAYMELSSLRSEDTAVYYCASQRWLLRGGDYWGQGTLVTVSSGGSEGKSSGSGSESKSTGGSDVVMTQSPLSLPVTLGQPASISCKSSQSLLDSDGKTYLNWLQQRPGQSPRRLIYLVSKLDSGVPDRFSGSGSGTDFTLKISRVEAEDVGVYYCWQGTHFPQTFGGGTKVEIK heavy 2: EVRLLESGGGLVQPGGSLRLSCAASGFTFSNYAMGWVRQAPGKGLEWVSAISGSGGSTYYADSVKGRFTTSRDDSKNALYLQMNSLRAEDTAVYYCARGGPGWYAADVWGQGTTVTVSS[here human IgG1 constant region with changes without letters] light: DIQMTQSPSSLSASVGDRVTITCRASQSISSYLNWYQQKPGKAPKLLIYAASSLQSGVPSRFSGSGSGTDFTLTISSLQPEDFATYYCQQADLPAFAFGGGTKVEIKRTVAAPSVFIFPPSDEQLKSGTASVVCLLNNFYPREAKVQWKVDNALQSGNSQESVTEQDSKDSTYSLSSTLTLSKADYEKHKVYACEVTHQGLSSPVTKSFNRGEC |

Reference: patent US20250270339A1 (Alector, published 2025)
